Test system: H1299 cells
Test: FACS detection of engineered DLL3 on the surface of transfected H1299 cells (Example 4)
Assay type: cell-based, human
Conditions: H1299 cells transfected with construct, fluorescently labeled anti-DLL3 antibody, compared to wild-type DLL3 (NP116, NP127)
Text: Each of the six engineered DLL3 constructs ([…]) and two different wild-type DLL3 constructs (NP116 and NP127) was separately introduced to human non-small cell lung carcinoma, H1299 cells (also known as NCI-H1299 or CRL-5803) by transfection to analyze the expression of engineered DLL3. H1299 cells were then stained with fluorescently labeled anti-DLL3 antibodies and analyzed by fluorescence-activated cell sorting (FACS) to detect DLL3 expression. Panels A2-G2 in FIG. 8B, and NP116, NP127, NP244-NP249, and NP268 in FIG. 8C show the amount of DLL3 expressed on the cell surface corresponding to panels A1-G1 in FIG. 8A. […] Specifically, NP249 and NP247 increased percent positive to ˜80% and ˜94%, respectively (FIG. 8C).

B1: NP248: engineered DLL3 construct, GM-CSF SP, hIgG4 Fc domain, CD4 transmembrane helix; SEQ ID NO: 38 (protein)
chain: MLLLVTSLLLCELPHPAFLLIPAGVFELQIHSFGPGPGPGAPRSPCSARLPCRLFFRVCLKPGLSEEAAESPCALGAALSARGPVYTEQPGAPAPDLPLPDGLLQVPFRDAWPGTFSFIIETWREELGDQIGGPAWSLLARVAGRRRLAAGGPWARDIQRAGAWELRFSYRARCEPPAVGTACTRLCRPRSAPSRCGPGLRPCAPLEDECEAPLVCRAGCSPEHGFCEQPGECRCLEGWTGPLCTVPVST[human IgG4 Fc not shown]MALIVLGGVAGLLLFIGLGIFFHMGGGSGGGSAYPYDVPDYAAYPYDVPDYA
expression level of DLL3 on the cell surface: increased the expression level of DLL3

— patent US20250144249A1, “METHODS USING SURFACE-EXPRESSIBLE ACTIVATABLE EPITOPES TO LOCALIZE AND/OR TREAT DISEASED CELLS” (EARLI Inc., priority 2022, published 2025)
